Out of some 310,000 compounds screened, about 14,000 (4.5%) showed an effect of 50% or more. The effect is printed as a negative number. The list shows a part of the results.
biological target: human ether-à-go-go-related gene (hERG) potassium channel (human, UniProt Q12809); assay: primary screen, population patch clamp on CHO cells stably expressing hERG
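Also: peak tail current of the secondary pulse compared with the same well before compound.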

Sequence of human ether-à-go-go-related gene (hERG) potassium channel (Q12809 whole entry, looked up): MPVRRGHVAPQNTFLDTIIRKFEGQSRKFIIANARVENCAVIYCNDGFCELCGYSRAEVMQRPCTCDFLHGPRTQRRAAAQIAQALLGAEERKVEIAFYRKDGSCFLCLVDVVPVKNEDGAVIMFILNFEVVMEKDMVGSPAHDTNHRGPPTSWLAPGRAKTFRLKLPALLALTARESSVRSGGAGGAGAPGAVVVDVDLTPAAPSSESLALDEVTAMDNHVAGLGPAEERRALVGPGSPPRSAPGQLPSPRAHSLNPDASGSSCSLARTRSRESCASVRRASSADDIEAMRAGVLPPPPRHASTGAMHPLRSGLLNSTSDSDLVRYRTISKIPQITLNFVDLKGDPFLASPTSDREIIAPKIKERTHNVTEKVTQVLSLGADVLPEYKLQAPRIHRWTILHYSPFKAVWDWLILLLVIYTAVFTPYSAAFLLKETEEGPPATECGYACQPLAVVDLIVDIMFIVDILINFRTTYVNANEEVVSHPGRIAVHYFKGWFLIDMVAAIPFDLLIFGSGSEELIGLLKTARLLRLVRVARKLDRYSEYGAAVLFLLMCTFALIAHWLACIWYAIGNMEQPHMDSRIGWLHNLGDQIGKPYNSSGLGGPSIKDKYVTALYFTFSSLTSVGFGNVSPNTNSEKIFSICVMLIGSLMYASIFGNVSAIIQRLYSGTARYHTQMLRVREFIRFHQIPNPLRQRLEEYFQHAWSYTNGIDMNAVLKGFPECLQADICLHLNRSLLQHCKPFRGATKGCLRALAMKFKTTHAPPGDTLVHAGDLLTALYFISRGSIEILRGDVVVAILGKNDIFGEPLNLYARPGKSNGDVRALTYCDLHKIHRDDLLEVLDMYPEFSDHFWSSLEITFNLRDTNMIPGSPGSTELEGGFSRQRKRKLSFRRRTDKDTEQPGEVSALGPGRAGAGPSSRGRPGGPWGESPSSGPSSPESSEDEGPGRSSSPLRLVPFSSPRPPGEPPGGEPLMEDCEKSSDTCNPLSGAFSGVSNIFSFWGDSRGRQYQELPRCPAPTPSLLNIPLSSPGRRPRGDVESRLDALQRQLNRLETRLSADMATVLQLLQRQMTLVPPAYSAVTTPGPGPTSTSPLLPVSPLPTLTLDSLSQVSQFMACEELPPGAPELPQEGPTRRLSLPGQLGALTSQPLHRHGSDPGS

SMILES	hERG current change (%, negative = inhibition) at 10uM [%]
O=C(O)/C=C/c1ccc(O)c(O)c1	13.1
COc1ccc(-n2c(=S)[nH]c3cc(C(=O)N4CCN(c5ccccc5)CC4)ccc3c2=O)cc1	36.4
CCCn1nnc(NC(=S)NC(=O)/C=C/c2ccco2)n1	10.8
COC(=O)c1ccc(NC(=O)C(=O)N2CCN(C(=S)Nc3ccc(OC)cc3)CC2)cc1	-0.865
COc1cc(C2c3c(c(C)c(C)oc3=O)Oc3c(C)c(C)oc(=O)c32)ccc1OS(=O)(=O)c1ccc(C)cc1	3.48
CCOC(=O)C1(CCc2ccccc2)CCN(C(=O)CCc2cnn(C)c2)CC1	-51.2
O=C(CN1CCc2cc3c(cc2C1)OCCCO3)Nc1ccccc1	-4.56
O=S(=O)(Nc1nccs1)c1cnc(Cl)c(Br)c1	11.5
Cn1c(C(=O)N2CCC3(CC2)OCCO3)cc2c(=O)n(C)c3ccccc3c21	-19
CCCC12CN(C(=O)c3ccco3)CC(CCC)(CN(C(=O)c3ccco3)C1)C2=O	-0.22
O=C(Nc1ccc(CN2CCOCC2)cc1)c1ccc(-c2ccc(Br)cc2)o1	-16.1
CN(Cc1ccco1)C(=O)CN1C(=O)NC2(CCCCC2)C1=O	11.6
COc1cccc(NC(=O)CN(C)C(=O)/C=C/c2cn(Cc3ccccc3)nc2-c2cccnc2)c1	-59.4
COc1ccc(/C=C/C(=O)Nc2nc(N)n(-c3ccccc3)n2)cc1	-53
CC(=O)c1ccc(NC(=O)c2cccc(N3C(=O)c4ccccc4C3=O)c2)cc1	8.32
CCC1CCCCN1CCCNC(=O)C1CCN(Cc2nc(-c3ccc(Cl)cc3)oc2C)CC1 (stereo not drawn)	-42.2
Clc1nc(CN2CCCCC2)nc2sc3c(c12)CCC3	-33.6
C=CCN=C(CC)C1=C(O)CCCC1=O	11.2
Cc1cccc(NC(=O)C2(c3ccc([N+](=O)[O-])cc3)CCCC2)c1	-32.3
O=C(NCc1nnc(SCC(=O)N2CCCC2)o1)c1ccccc1F	11.8
O=C(NC(=S)Nc1ccc(S(=O)(=O)N2CCCC2)cc1)C1CC1	-29.8
NC(=O)CN1C(=O)NC2(CCCc3ccccc32)C1=O (stereo not drawn)	15.4
CCC(C(=O)OC)n1cnc2c(oc3ccccc32)c1=O (stereo not drawn)	9.33
CCOc1cccc(C2NC(=S)NC(C)=C2C(=O)Nc2ccccc2)c1 (stereo not drawn)	2.98

From paper PMC4336329 (PLoS ONE, 2015)
